Experimental data as given in PubChem BioAssay AID445 (National Center for Advancing Translational Sciences (NCATS), 2006).
The whole screen tested about 110,000 compounds, of which about 40 (0.04%) were called active. This list was built around the results that the source calls inconclusive (neither active nor inactive); the mix of calls is not that of the screen. The call rests on the fitted dose curve; in most records, active means well fitted curve in the direction sought with a large enough effect in the signal ratio (not every such curve was filed as active); inconclusive means small, poorly fitted or top-dose-only effect, or a change in a side signal; inactive means flat fitted curve, though single readings scatter; the % refers to the signal ratio. A potency beside an inconclusive call is a rough fit, not a confirmed value.

Experiment: IkB Signaling;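 on IkBa stabilization activation: 0% = basal untreated cells and 100% = reference inhibitor full response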
Conditions: ABC-DLBCL IkBa-CBG/CBR dual luciferase ratio (green luciferase fused to IkBa over red control in OCI-Ly3 lymphoma cells), 4 h; IkBa stabilization activation: at 57.1 µM (top of the series), scaled: untreated 0%, proteasome inhibitor 100% unless noted
Method in brief: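 Curves were fitted separately to fusion (green), unfused (red) and ratio luminescence, then classed by r2, magnitude and activity. Cells: OCI-Ly3, 4 h compound plus doxycycline at 37C; 10 uM MG-132 defined full response.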
Potency means the concentration at half of the fitted maximal effect.

Compound	IkBa stabilization activation	Potency
CCOC(=O)c1c(C)[nH]c(CCC(=O)Nc2ccccc2C(=O)OC)c1C	inconclusive: 1.29% [signal inhibitor]	–
COc1ccc(-n2c(-c3ccco3)nc3c(cnn3-c3ccc(C)cc3)c2=O)cc1	inconclusive: 1.46% [signal inhibitor]	–
CC(=O)c1cc2c(cc1NC(=O)CN1CCN(c3ccc(F)cc3)CC1)OCO2	inactive: 0.645%	–
CCCCOCc1cc(CN2CCN(c3cccc(Cl)c3)CC2)c(O)c2ncccc12	inactive: -0.984%	–
COC(=O)c1c(NC(=O)COc2cc(C)ccc2C(C)C)sc2c1CCC(C)C2 (stereo not given)	inactive: 0.0136%	–
Cc1ccc(-c2ccc(=O)n(CC(=O)NCc3ccc(F)cc3)n2)cc1	inconclusive: -4.15% [signal inhibitor]	–
COc1ccc(-c2nc3n(n2)C(=O)CC(c2ccc(Cl)cc2)S3)cc1 (stereo not given)	inconclusive: 5.91% [signal inhibitor]	–
CCOC(=O)c1ccc(NC(=O)CC2NCCNC2=O)cc1 (stereo not given)	inactive: -1.72%	–
O=c1cc(Nc2ccc3c(c2)OCO3)[nH]c(=O)n1-c1ccc(Br)cc1	inactive: -1.08%	–
COc1ccc2cc3cc(C(=O)NCCc4ccc(OC)c(OC)c4)oc3nc2c1	inconclusive: 8.7% [signal inhibitor]	–
c1ccc2c(c1)nnn2-c1ncnc2sc3c(c12)CCCC3	inconclusive: 1.71% [signal inhibitor]	–
CCS(=O)(=O)CCSc1nc(-c2ccc(Br)cc2)cc(-c2ccccc2)c1C#N	inactive: 0.163%	–
N#Cc1cccc(NC(=O)C2CCN(c3ncccn3)CC2)c1	inactive: -1.18%	–
Cc1cccc(-c2nc(SCC(=O)Nc3ccc4c(c3)OCO4)c(-c3ccccc3)[nH]2)c1	inactive: 11%	–
O=C(CCn1c(=O)c2cccn2c2cccnc21)N1CCN(c2cccc(Cl)c2)CC1	inactive: -0.584%	–
COc1ccc(NC(=O)C2CCCN2S(=O)(=O)c2ccc3nc(-c4ccccc4)[nH]c3c2)cc1 (stereo not given)	inconclusive: -1.32% [signal inhibitor]	–
Fc1ccc(Cn2nnnc2C(c2cccs2)N2CCCCCC2)cc1 (stereo not given)	inconclusive: 1.46% [signal inhibitor]	–
Cc1cc(C)cc(-n2ccnc2SCC(=O)Nc2nccs2)c1	inactive: 1.77%	–
CC(C)CCSc1nc2c(c(=O)[nH]c(=O)n2C)n1CCCc1ccccc1	inactive: 1.58%	–
CCOC(=O)c1cc(-c2ccc(C)cc2)n(CCC(=O)Nc2ccc(OC)c(OC)c2)c1C	inconclusive: -3.2% [signal inhibitor]	–
CCCCCN1C(C(=O)c2ccccc2)=C(NC(=O)c2ccccc2Cl)c2ccccc2S1(=O)=O	inconclusive: 3.49% [signal inhibitor]	–
Nc1nc(Cl)nc2c1ncn2[C@@H]1O[C@@H](COP(=O)(O)OP(=O)(O)OP(=O)(O)O)[C@@H](O)[C@H]1O	inconclusive: 0.142% [signal activator]	–
O=C1C(C2=C(O)c3ccccc3C2=O)=Nc2ccccc21	–	inconclusive: 25.1 µM [signal inhibitor, partial curve]

Compound	IkBa stabilization activation	Potency
COc1ccc(CCNC(=O)c2ccc3c(c2)N(Cc2ccc(Cl)cc2)CCS3)c(OC)c1	inconclusive: 1.56% [signal inhibitor]	–
CCc1c(C)nc2cc(-c3ccc(OC)cc3)[nH]n2c1=O	inactive: -0.629%	–
O=C1CC(c2ccc(Cl)cc2)Sc2nc(-c3ccc(F)cc3)nn21 (stereo not given)	inconclusive: 7.22% [signal inhibitor]	–
COc1cccc(NS(=O)(=O)c2ccc3c(c2)n(C)c(=O)c(=O)n3C)c1	inactive: 5%	–
COCC(=O)N1CCC2(CCCN(C(=O)Nc3cccc(F)c3)C2)CC1	inactive: -0.378% [at 11.4 µM, scaled: untreated 0%, proteasome inhibitor 100%]	–
N#C/C(=C1/CCCCCN1)c1nc2ccccc2s1	–	inconclusive: 0.794 µM [signal inhibitor, full curve]
CCn1c(=O)cc(SCC(=O)NCCc2ccc(OC)cc2OC)c2ccccc21	inconclusive: -0.894% [signal inhibitor]	–
CCCn1c(=O)c2sccc2n2c(CCCC(=O)Nc3cccc(CC)c3)nnc12	inconclusive: -0.586% [signal inhibitor]	–
Cn1c(CN2CCCCC2)nc2cc(NC(=O)c3ccc(F)cc3)ccc21	inconclusive: 11.5% [signal inhibitor]	–
COc1ccccc1CNC(=O)CCCCn1c(=O)c2ccccc2n(CC(=O)Nc2cc(Cl)ccc2C)c1=O	–	inconclusive: 25.1 µM [rising, single point]
CCOC(=O)C1(Cc2ccccc2)NC(c2ccccc2F)C2C(=O)N(CC)C(=O)C21 (stereo not given)	inconclusive: 0.326% [signal inhibitor]	–
O=C(CN(Cc1ccco1)C(=O)CNS(=O)(=O)c1ccc(Cl)cc1)NCc1ccc(F)cc1	inconclusive: 1.39% [signal inhibitor]	–
COc1ccc2c(c1)c1c(c(=O)n(-c3ccccc3C)c(=O)n1CC(=O)Nc1c(C)cccc1C)n2C	inconclusive: -2.28% [signal inhibitor]	–
O=c1c2[nH]c3ccccc3c2nc(SCc2cccc(F)c2)n1-c1ccccc1	inconclusive: -2.32% [signal inhibitor]	–
CCOCCc1nn2c(=O)cc(COC(=O)C(CC)c3ccccc3)nc2s1 (stereo not given)	inactive: -1.42%	–
Cc1cccc(C(=O)Nc2ccccc2SCc2cc(=O)c3cccc(C)c3[nH]2)c1	inconclusive: -1.74% [signal inhibitor]	–
Cc1nnc(N2CCN(c3ccccc3F)CC2)c2c1nnn2Cc1ccccc1	inconclusive: 0.891% [signal inhibitor]	–
COc1ccc(NC(=O)CCn2cccn2)cc1OC	inactive: -1.1%	–
CCOc1ccc(NC(=O)CC2C(=O)N(c3cccc(C)c3)C(=O)N2Cc2cccnc2)cc1 (stereo not given)	inconclusive: -0.502% [signal inhibitor]	–
CCCCc1nn2c(=O)cc(COC(=O)c3ccc(NC(=O)C4CCCCC4)cc3)nc2s1	inconclusive: -2.2% [signal inhibitor]	–
Cc1ccc(Cn2c(=O)n(Cc3ccccc3Cl)c(=O)c3ccccc32)cc1	inconclusive: 0.804% [signal inhibitor]	–
COc1cccc(NC(=O)CN(c2ccc(C)cc2)S(=O)(=O)c2c(C)nn(C)c2C)c1	inconclusive: 9.55% [signal inhibitor]	–
